From the supplement of paper PMC9446081
About 220 (0.56%) of roughly 39,000 compounds showed activity. The list shows a part of the results.
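Note: static incubation at 37 °C against the wild-type strain, values averaged over two biological replicates.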

These molecules were tested on Escherichia coli K-12 BW25113 (assay: relative growth (OD600 normalised to plate interquartile mean) (fraction); higher = less growth inhibition, active = 0.2 or less). Conditions: 50 µM; LB; incubation time: overnight (16-24 h).
For `COc1cccc(NC(=O)N(C)C[C@H]2Oc3cc(C#CC4(O)CCCC4)ccc3S(=O)(=O)N([C@@H](C)CO)C[C@H]2C)c1`, the relative growth was inactive: 0.977.
For `COc1ccc(S(=O)(=O)N(C)C[C@H]2Oc3c(cccc3N(C)C)C(=O)N([C@@H](C)CO)C[C@@H]2C)cc1`, the relative growth was inactive: 1.02.
For `COc1ccc(S(=O)(=O)N(C)C[C@@H]2Oc3c(NC(=O)Nc4cccc5ccccc45)cccc3C(=O)N([C@@H](C)CO)C[C@H]2C)cc1C`, the relative growth was inactive: 0.97.
For `CCCNC(=O)C[C@@H]1CC[C@@H]2[C@H](COC[C@H](O)CN2S(=O)(=O)c2ccc(Oc3ccccc3)cc2)O1`, the relative growth was inactive: 1.03.
In the case of `C[C@@H]1CN([C@@H](C)CO)C(=O)Cc2cc(NC(=O)Cc3ccccc3)ccc2O[C@H]1CN(C)Cc1ccc(-c2ccccc2)cc1`, the relative growth is reported as inactive: 0.978.
For `O=C(O)CCCN1C(=O)CSC1=S`, the relative growth was inactive: 0.972.
`Cc1ccc(S(=O)(=O)Nc2ccc3c(c2)C(=O)N([C@H](C)CO)C[C@@H](C)[C@H](CN(C)C(=O)Nc2cccc4ccccc24)O3)cc1` was tested, and the relative growth was inactive: 1.02.
With `N#C[C@@H]1N[C@H](CO)[C@@H]1c1ccccc1` the relative growth was inactive: 0.975.
In the case of `NC(=O)[C@H]1C[C@@H]2C=C[C@H]1C2`, the relative growth is reported as inactive: 0.999.
For `COC(=O)c1c2oc(c1C(=O)OC)C(=O)N(C)Cc1cn(nn1)C[C@@H](C)NC(=O)N[C@H](CO)CC2`, the relative growth was inactive: 0.987.
`O=C(Cc1ccncc1)NCC[C@H]1CC[C@H](NC(=O)C2CCOCC2)[C@@H](CO)O1` was tested, and the relative growth was inactive: 1.01.
In the case of `COc1ccc(S(=O)(=O)N(C)C[C@@H]2Oc3ccc(NS(=O)(=O)c4ccc(F)cc4)cc3CC(=O)N([C@H](C)CO)C[C@H]2C)cc1`, the relative growth is reported as inactive: 0.995.
With `Cc1noc(C)c1NC(=O)N(C)C[C@@H]1Oc2ccc(NC(=O)CCN3CCOCC3)cc2C(=O)N([C@@H](C)CO)C[C@@H]1C` the relative growth was inactive: 1.
For `C[C@H](CO)N1C[C@H](C)[C@H](CN(C)S(C)(=O)=O)Oc2ccc(NC(=O)CCC(F)(F)F)cc2C1=O`, the relative growth was inactive: 1.02.
With `O=C(C[C@H]1C[C@H]2c3cc(NS(=O)(=O)c4ccc(F)cc4)ccc3O[C@H]2[C@@H](CO)O1)NC1CCCCC1` the relative growth was inactive: 1.04.
In the case of `COc1ccc(S(=O)(=O)N(C)C[C@@H]2Oc3ccc(N(C)C)cc3CC(=O)N([C@H](C)CO)C[C@H]2C)cc1`, the relative growth is reported as inactive: 1.02.
In the case of `O=C1C(O)=C(O)C(=O)C(O)=C1O`, the relative growth is reported as inactive: 0.951.
In the case of `C[C@@H]1CCCCO[C@H](CN(C)C(=O)Nc2ccccc2)[C@H](C)CN([C@H](C)CO)C(=O)c2cc(NC(=O)Nc3ccccc3)ccc2O1`, the relative growth is reported as inactive: 1.03.
`C[C@@H]1CN([C@H](C)CO)C(=O)c2cccc(NS(=O)(=O)c3ccc(F)cc3)c2O[C@@H]1CN(C)S(=O)(=O)c1ccccc1` was tested, and the relative growth was inactive: 0.986.
`C[C@@H]1CN([C@@H](C)CO)C(=O)c2cccc(NC(=O)c3cnccn3)c2O[C@H]1CN(C)S(=O)(=O)c1cccs1` was tested, and the relative growth was inactive: 1.01.
`C[C@H](O)C#Cc1cnc2c(c1)C(=O)N([C@H](C)CO)C[C@H](C)[C@H](CN(C)Cc1cncnc1)O2` was tested, and the relative growth was inactive: 0.916.
In the case of `CCCNC(C)C(=O)Nc1ccccc1C.Cl` (stereo not given), the relative growth is reported as inactive: 1.11.
With `c1ccc(Oc2nnc(-c3ccccc3)c3ccccc23)cc1` the relative growth was inactive: 0.997.
`CC(C)N1CC2(CN([C@@H](C)c3ccc(Cl)cc3)C2)Oc2c(NC(=O)c3ccncc3)cccc2C1=O` was tested, and the relative growth was inactive: 1.01.
In the case of `C[C@@H]1CN([C@H](C)CO)C(=O)Cc2cc(NC(=O)CCCCCC(=O)Nc3ccccc3N)ccc2O[C@H]1CN(C)S(=O)(=O)c1cn(C)cn1`, the relative growth is reported as inactive: 0.991.
With `COc1ccc(S(=O)(=O)Nc2ccc3c(c2)C(=O)N([C@@H](C)CO)C[C@@H](C)[C@H](CN(C)C(=O)C2CCCCC2)OCCCC[C@@H](C)O3)cc1` the relative growth was inactive: 0.945.
For `C[C@@H]1CCCCO[C@@H](CN(C)Cc2ccncc2)[C@H](C)CN([C@@H](C)CO)C(=O)c2cc(NC(=O)CCCCCC(=O)Nc3ccccc3N)ccc2O1`, the relative growth was inactive: 0.96.
In the case of `Cc1ccc(S(=O)(=O)N(C)C[C@@H]2OCCCC[C@@H](C)Oc3ccc(NC(=O)C4CCCCC4)cc3C(=O)N([C@@H](C)CO)C[C@H]2C)cc1`, the relative growth is reported as inactive: 1.01.
For `COc1ccc(S(=O)(=O)Nc2ccc3c(c2)C(=O)N([C@H](C)CO)C[C@H](C)[C@H](CN(C)C(=O)Nc2ccc(F)cc2)OCCCC[C@H](C)O3)cc1`, the relative growth was inactive: 0.985.
In the case of `COc1ccc(S(=O)(=O)Nc2cccc3c2O[C@H](CN(C)S(=O)(=O)c2ccc(C)cc2)[C@H](C)CN([C@H](C)CO)C3=O)cc1`, the relative growth is reported as inactive: 1.01.
With `C[C@H]1CN([C@@H](C)CO)S(=O)(=O)c2ccc(C#Cc3ccncc3)cc2O[C@@H]1CN(C)C(=O)c1ccncc1` the relative growth was inactive: 0.999.
`C[C@@H]1CN([C@@H](C)CO)C(=O)Cc2cc(NC(=O)Nc3ccc4c(c3)OCO4)ccc2O[C@H]1CN(C)Cc1ccc(C(=O)Nc2ccccc2N)cc1` was tested, and the relative growth was inactive: 0.97.
In the case of `C[C@@H]1CN([C@@H](C)CO)C(=O)c2c(c3ccccc3n2C)-c2ccccc2CO[C@H]1CN(C)S(=O)(=O)c1ccc(C(F)(F)F)cc1`, the relative growth is reported as inactive: 1.03.
With `C[C@H](CO)N1C[C@H](C)[C@@H](CN(C)S(=O)(=O)c2ccccc2)Oc2ccc(NC(=O)CCN3CCOCC3)cc2CC1=O` the relative growth was inactive: 1.02.
In the case of `CO[C@H]1C[C@@H]2CC[C@@H](C)[C@@](O)(O2)C(=O)C(=O)N2CCCC[C@H]2C(=O)O[C@H]([C@H](C)C[C@@H]2CC[C@@H](O)[C@H](OC)C2)CC(=O)[C@H](C)/C=C(\C)[C@@H](O)[C@@H](OC)C(=O)[C@H](C)C[C@H](C)/C=C/C=C/C=C/1C`, the relative growth is reported as inactive: 0.989.
In the case of `Cc1c(C(N)=O)cc([N+](=O)[O-])cc1[N+](=O)[O-]`, the relative growth is reported as inactive: 1.01.
With `COc1ccc(S(=O)(=O)Nc2ccc3c(c2)C(=O)N([C@@H](C)CO)C[C@H](C)[C@@H](CN(C)Cc2ccc(-c4ccccc4)cc2)O3)cc1` the relative growth was inactive: 1.
In the case of `O=C1CSCC(=O)N1c1cccnc1`, the relative growth is reported as inactive: 0.989.
`COCCNC(=O)C[C@H]1CC[C@@H](NS(=O)(=O)c2ccc(C)cc2)[C@H](CO)O1` was tested, and the relative growth was inactive: 1.07.
With `Cc1ccc(S(=O)(=O)Nc2ccc3c(c2)C(=O)N([C@@H](C)CO)C[C@@H](C)[C@H](CN(C)Cc2ccc(C(F)(F)F)cc2)O3)cc1` the relative growth was inactive: 1.03.
With `COc1ccc(C#Cc2ccc3c(c2)O[C@@H](CN(C)C(=O)c2ccccn2)[C@@H](C)CN([C@H](C)CO)S3(=O)=O)cc1` the relative growth was inactive: 1.03.
For `C[C@@H]1CN([C@@H](C)CO)S(=O)(=O)c2ccc(-c3ccncc3)cc2O[C@@H]1CN(C)C(=O)c1cccc(F)c1`, the relative growth was inactive: 0.988.
In the case of `COc1ccc(CN(C)C[C@@H]2Oc3ccc(NS(=O)(=O)c4c(C)noc4C)cc3C(=O)N([C@@H](C)CO)C[C@@H]2C)cc1`, the relative growth is reported as inactive: 0.988.
`C[C@H](CO)N1C[C@H](C)[C@H](CN(C)C(=O)Nc2cccc3ccccc23)Oc2ccc(NC(=O)Nc3cccc4ccccc34)cc2C1=O` was tested, and the relative growth was inactive: 1.02.
For `Cc1cccc(/C=N/Nc2cc(N3CCOCC3)n3nc(-c4ccncc4)cc3n2)c1`, the relative growth was inactive: 1.03.
With `CC(C)NC(=O)N(C)C[C@@H]1Oc2cc(-c3ccccc3F)ccc2S(=O)(=O)N([C@H](C)CO)C[C@H]1C` the relative growth was inactive: 1.01.
In the case of `C[C@H]1CCCCO[C@@H](CN(C)S(=O)(=O)c2cccs2)[C@@H](C)CN([C@@H](C)CO)C(=O)c2cc(NC(=O)NC3CCCCC3)ccc2O1`, the relative growth is reported as inactive: 1.01.
`Cc1ccc(S(=O)(=O)n2cc([C@@H]3CC(=O)N(C(=O)OCc4ccccc4)[C@@H]3C(=O)Nc3cccc4cccnc34)c3ccccc32)cc1` was tested, and the relative growth was inactive: 1.02.
`C[C@@H]1CCCCO[C@H](CN(C)C(=O)C2CCCCC2)[C@@H](C)CN([C@@H](C)CO)C(=O)c2cc(NC(=O)c3ccncc3)ccc2O1` was tested, and the relative growth was inactive: 1.
With `COc1ccc(CN(C)C[C@H]2OCCCC[C@@H](C)Oc3ccc(NC(=O)c4ccccc4)cc3C(=O)N([C@@H](C)CO)C[C@@H]2C)cc1` the relative growth was inactive: 1.03.
For `CCS(=O)(=O)N(C)C[C@@H]1OCc2ccccc2-c2c(n(C)c3ccccc23)C(=O)N([C@H](C)CO)C[C@@H]1C`, the relative growth was inactive: 1.02.
For `CO[C@@H]1CN(C)C(=O)c2cc(NS(C)(=O)=O)ccc2OC[C@H](C)N(C(=O)C2CCOCC2)C[C@@H]1C`, the relative growth was inactive: 1.01.
`C[C@H]1COC(=O)[C@H](Cc2ccc(F)cc2)CC=CC[C@@H](CC(=O)N[C@@H](CO)Cc2ccccc2)C(=O)N1` was tested, and the relative growth was inactive: 0.988.
In the case of `COc1ccc(-c2cnc3c(c2)C(=O)N([C@@H](C)CO)C[C@H](C)[C@@H](CN(C)C(=O)Cc2ccccn2)O3)cc1`, the relative growth is reported as inactive: 1.
`COc1ccc(C(=O)N[C@@H](C)c2nnc(SCc3cccc(C(F)(F)F)c3)n2-c2cccc(Cl)c2)cc1` was tested, and the relative growth was inactive: 1.04.
`O=C(Cc1ccncc1)NCC[C@H]1CC[C@H](NC(=O)C2CCOCC2)[C@H](CO)O1` was tested, and the relative growth was inactive: 0.984.
For `C[C@H]1CN([C@@H](C)CO)C(=O)c2cc(/C=C/c3ccccc3)cnc2O[C@H]1CN(C)S(=O)(=O)c1cn(C)cn1`, the relative growth was inactive: 1.02.
With `C[C@H](CO)N1C[C@H](C)[C@H](CN(C)S(=O)(=O)c2cn(C)cn2)OCCCC[C@H](C)Oc2ccc(N(C)C)cc2C1=O` the relative growth was inactive: 0.985.
For `CS(=O)(=O)N1C[C@@H](O)COC[C@H]2O[C@H](CC(=O)NCc3ccccc3)CC[C@@H]21`, the relative growth was inactive: 1.01.
With `NC1CCN(c2cccc(Cl)n2)CC1` the relative growth was inactive: 0.978.
